Source: PMC2692298 (Science signaling, 2008)

Target: the molecule itself
Test: nonreducing SDS-PAGE

B1: SDF1(L36C/A65C), covalently-locked symmetric dimer (ligand)
chain: not shown
modifications: intermolecular […] disulfide bonds between the two subunits
stoichiometry N: 2
